Whole data set: some 4,500 sequences, median “median log2 fold change of GCK-ALFA target abundance (FLAG IP / Myc IP barcode read proportion)” near 0.078, cut for the lowest 2% near -0.6. The list shows a part of the results.

B1: GBRAP_128_3192 (protein)
chain: TEEELAAMTEKLIEIVKTKDKAEVKAAVKAALEAIRAAGLDLVEAFTEMAEAVASSLDAENVKKFGEAAKAAAAEIEGEGETLARLVDAIVLTEIEEKEE
B2: GBRAP_96_7086 (protein)
chain: VSEELLKLVKEVKEAAKTDEEKLLKLLEELSKYSEEEIEEAFKKVEFTPEEVRKIAEAATKLGEEKAEKLLLALAEAAVEAGKTEQVRVVIEVSEKLEKE
B3: GBRAP_184_5354 (protein)
chain: TTEDVLIEADTVEEAIAKLRAAAAEAAAAGATLNVLIKVPINTVEEAKALMAAIAEAAAAGVLANTVGIDGVSQDDEIIDALIEGADAAGVRVVLALDGS
B4: GBRAP_184_5053 (protein)
chain: KTFEATIKAENEEELKEKLEELKEEVKNHKGNLIVLVEVPEFTEEMIKTIMEKMKEILDKGYAKKITVGLDGKMSEEVVDLALKLADEAGVNVVLALDEE
B5: GBRAP_184_5308 (protein)
chain: KVLHVTIEAKNAEEAIKKIKEAAEKAKKEGAKLEIDLYLENVDVEGFKKILEYLKKLKEEGILKSATIDLLDEKSEEEVDKLVKYADEAGVKLVVALSDE
B6: GBRAP_160_4012 (protein)
chain: MEEIEELIKEIEEEFEELKEWLKGESPENRLTIVRGTAGDILQLVFDSPSVSDETEDKIAEILDELVAWFEENANASLEEWEAAIDETLEKIKKLLEEDK
B7: GBRAP_184_5324 (protein)
chain: EVIHKVIEVETAEEAKEKLEELKKEAKKSGKKYLVTIELKNATAELIETVAEEIKKMKEEGIDAEFIVVINDPVDEELLDIAVEKMDEAGAKVVAALEDE
B8: GBRAP_139_3702 (protein)
chain: MTLEEKIEEAKRLTKEMEENPEESLEALVKLLNSLSEEEAEKALKAVTEVMAELPLDEFEKLADALLEKAEEEIEDEDKVLILEGVLNGGLARKAAEEEA
B9: GBRAP_160_4342 (protein)
chain: EEEKEKLLKFVDEEFDETKELIEGLSIEQRKVLISDTFGRIIMELSESSIVSDETEDKVREIEDELLAYLDANPDLSEEEIKKLIEEAREKVKEVIEKET
B10: GBRAP_35_5591 (protein)
chain: EITEIILETAEDYAEAAIYAIRNESIEEAIAALKAFIRTMRLAIEDLKDDAEALKKLAELIKRVIEEVKKYRSDNPEIQKLLKELEKLLKEAEKKAKEVE
B11: GBRAP_160_3970 (protein)
chain: SEAVEKLKKEIEEIFDEAKEMIKGETFEERLTVVRVAVGEVLLLAMESPLVSDEAEEKIAEIGDALIAELEANPDYTEEEIKALIEKAREEVIKVIEEDA
B12: GBRAP_11_2896 (protein)
chain: KKEKLKEAAELAEKAAKLLEELIKEGPDNEELRKKAEEALEKLLELAKKYLDESSVELAESALELFEKAKEDPENAKEYLEQALAYVRVLEGQVLLEIEE
B13: GBRAP_52_5987 (protein)
chain: MEEKARKIAEELVELRLAGKEEEAKKLIKEIVATLSEEEIKLIFEELARMAKTANPEEIDAIVDIALDLADAALEAGFDEAEVDDQLARVAAAAVEALQK
B14: GBRAP_35_5515 (protein)
chain: STDDTIADMLAASLEDLVLAVDDVPPDTLATMTLQYARAAREVIEAERDNIAGARRIAARLEALGAAIRARGLDDPRLQAAADAVDAVLALAREVAAREE
B15: GBRAP_128_3219 (protein)
chain: AAEEAVERARELLEELKEADEEEREEIARELAELVASLPVEVAEAVAEVVEELAPELSEEDLDILMDAFEEAARARSDERSLVLAEIAIIFGQELLELEE
B16: GBRAP_184_5358 (protein)
chain: EVRHLSVTVETKEEAVEKLAEAREEIRASGLPTVLVVELKNADLETVETVMELLAELREEGLIERGIVVVDDDRSEEEIDKMVELADRYGVDLVVAIPEE
B17: GBRAP_160_4717 (protein)
chain: SETAEKLKEYVDEEFDEAEELMKGESIEQRAIILEGTVGEIIMELFENPDASDELIDEVLKIGDEAVATLKANPDLSDEEIEELLDEARDKMKEAIDKHL
B18: GBRAP_11_2901 (protein)
chain: KKEKLKELAKLLKKLIELLKKLLKEGPENEELLEEALKVAEKALELAKEVLDESDVELAKELVRLLKKAKEDPENAVEYLKQALAIAQVLLGQVLLEIEE
B19: GBRAP_128_3451 (protein)
chain: SVEEAAERARRVMEAMKAADLEEARALARELAAWLGTLSLEEAEAAMETLEELAPELSAEKLDILADVLREARPQLSPEKARLAADVEVELLNEAEEKEE
B20: GBRAP_128_3381 (protein)
chain: IDEEKLEKVKKLVDEMIKASVEEVRKLTREFIEFLTTLSPEEQEAAVEILEEKLPEFTAEQLEVIADVIEEAMPSLDPYLANLLAGLRVEALNLAVEKEE
B21: GBRAP_52_5843 (protein)
chain: MEEKARKLAEELVKLAKAGDEAGLKAKIAEIVATLTEEEVMKVLKELAKLAATADPETAEVIWKVAEALADAAAAAGFDEMELSAGLADVGAAVYKALQK
B22: GBRAP_52_6268 (protein)
chain: MEEEAEKIAKEFIEVTLTKSEEEVKEFAKKVVETKSQELIAKILKIVVEKSKELNAEELEKLLEAFLILEDELEKAGKDTLPAEDAAAELAKLHMEKLKE
B23: GBRAP_52_6230 (protein)
chain: MEEEMEKLVKEMIELVKKGDLEGARKLAEKIAEELNDEELEIFIEALAKLAEESPLEERPYFEKLAEIMAEVFEEKGKDEVLIDLLEARVAAALYKREQK
B24: GBRAP_139_3696 (protein)
chain: SELEKLIEKARELTKKTKEDPEKSIEEIVELISSVSEEEAEKLVKAIAEELSKLPLDEAEKLADLLIEKAEEKIKDEDKVRIVEAELNGMLARKAYEEEL
B25: GBRAP_160_4790 (protein)
chain: MERVEEVARRFREALEEALKLAEGESNEERVAIFDVELGSAILELEEEGLLNDEEEEVAVEVRDELVARVRANPDLTPEELRALAEEAVRRLRERLKELE
B26: GBRAP_160_4834 (protein)
chain: KEKVEEAKKYIDEEFEKIIEMMKGETTEQRAAIVRVGIGEIIMYLREKGVATDELEDFLIEEEDRLVATILANPDLTDEELKALIEETRKRIKEALEKES
B27: GBRAP_78_6712 (protein)
chain: KLEELLDKAIETLNEAARLALELPEERSNEILDLLVEASNLLEEVKEPGVSKEEALKKLKEAEKLLKKALELLGEDDKELRKKVEEALKLVKKAIEELKK
B28: GBRAP_139_3723 (protein)
chain: AEKEEAIKKAVELVKKYKDDLEKLAEELAKLIASVDDETALAIARAAAEALKDYSWEKWEELIELLEKELKKLGLDEDRILAIAGEMEAVAAQHLIEKEK
B29: GBRAP_57_6471 (protein)
chain: EERLKKVREHAEAALKLIEAGAPTEEVLAEIAKALEELSEETLRDILLIADPSAEYDVSKEEARARLLALARAYLEAGDTEAVRRLVRLIEGQAEMDATE

The target of this experiment is GABARAP, O95166. Description: median log2 fold change of GCK-ALFA target abundance (FLAG IP / Myc IP barcode read proportion) (log2 ratio); each designed protein is fused to an ALFA-tag nanobody in HEK293 cells to bring the named protein to FLAG-tagged glucokinase (GCK); Myc marks an untargeted standard; higher = target protein stabilised (more abundant). The note with it: target protein: 3xFLAG-MCP-GCK-ALFA reporter; HEK293 landing pad (RPLP). The gist of the method: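 The readout is target abundance, the per-binder median log2 ratio of FLAG to Myc barcode read proportions. It came from HEK293 landing-pad cells carrying a recombined ALFA-nanobody-fused binder library, induced with 2 μg mL^−1 doxycycline and transfected with a plasmid for a FLAG-tagged target and a Myc-tagged standard. After 48 h, lysates were immunoprecipitated with anti-FLAG and anti-Myc, and circular RNA barcodes were reverse transcribed, amplified and sequenced. Each barcode needed a proportion of at least 10^−7 in both replicates and each binder at least 3 barcodes per replicate, a pseudocount of 10^−6 was added, and the replicates were pooled.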
Chain of GABARAP, O95166 (O95166 whole entry, the tested form may be a part): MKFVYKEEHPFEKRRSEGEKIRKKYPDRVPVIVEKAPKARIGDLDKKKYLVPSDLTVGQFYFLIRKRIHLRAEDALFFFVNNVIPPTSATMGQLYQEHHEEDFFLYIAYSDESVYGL
For the molecule B1, the “median log2 fold change” value stood at 0.132.
With B2, the “median log2 fold change” value was 0.302.
For B3 the value was -0.00595; for B4, 0.0997; for B5, 0.0556.
For B6 the value was 0.0135; for B7, -0.098; for B8, 0.262.
For B9 the value was 0.31; for B10, 0.144; for B11, -0.145.
Consider B12, for which the “median log2 fold change” value stood at 0.203.
Consider B13, for which the “median log2 fold change” value is -0.219.
The figure for B14 is 0.161; for B15 it is -0.331.
The figure for B16 is -0.0422.
As to B17, the “median log2 fold change” value was -0.000956.
B18: the “median log2 fold change” value came to 0.36.
The figure for B19 is 0.195.
The figure for B20 is 0.0613; for B21 it is 0.0998.
For the molecule B22, the “median log2 fold change” value came to 0.181.
For B23 the value was 0.244; for B24, 0.209; for B25, 0.0641.
The figure for B26 is 0.138.
Take B27: the “median log2 fold change” value worked out at 0.121.
The figure for B28 is 0.0702; for B29 it is 0.303.

Source of the values: the supplement of paper PMC12632987.
